Assay results published in the supplement of paper PMC11417369.
± gives the standard deviation of the averaged measurements. The list shows a part of the results.

Test system: PfAP2-G AP2 domain (GST-tagged)
Test: gcPBM binding intensity (ln(normalized median fluorescence intensity)); higher = stronger DNA binding
Outline: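 GST-tagged P. falciparum DNA-binding domains, expressed in E. coli (about 25 μg on average), were applied for 1 h to an Agilent 4 × 180k array of primer-extended double-stranded 36-bp intergenic genomic probes plus negative controls. The binding buffer was 1× PBS with 1% milk, 0.2 mg/ml BSA, 0.5% salmon testes DNA and 0.03% Triton X-100. Bound protein was detected with Alexa488 anti-GST antibody and scanned at 488 nm. Binding intensity is the highest Masliner-normalised natural-log median intensity across replicate spots of either probe orientation.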

Sequence	gcPBM binding intensity (ln)
TTTTTTTTTTTTTGATGTACTAAAAAAAATGAGCCT [XGTACX_site8535]	11.2 ± 0.95
AATAAACATAAATACACACACAAAAAAAAAAACATA [CACACA_site4396]	10.1 ± 0.33
AAAAACAAAATATAATGTACACAATATATGTATATA [XGTACX_site2301]	11.4 ± 0.57
AAATATTACTACACTACATGCAGTTTTAGGTACACT [TGCATGCA_site42]	11.2 ± 0.78
TAATGTTTTTATATCACACACAAATATTAAATGATT [CACACA_site543]	9.835 ± 0.035
TTATTAGGTGTATAATGTACATATAATATATATATA [XGTACX_site3398]	11 ± 0.44
ATAGAAGCATCACACTGTACATGGATGAACAGAAAA [XGTACX_site7311]	10.7 ± 0.3
TATAATATAAGGATCACACACAAACAGACATATATA [CACACA_site557]	10.23 ± 0.099
TATAGGTAAATGGACACACACATATTTATATTTATA [CACACA_site7683]	10.9 ± 0.58
TGTAGTCTGGAGAAGAGTACATAGTATCTGGTAACA [XGTACX_site4944]	11.3 ± 0.79
ATAGTTCCTTTTAATACACACAAAAAAAAAAACATG [CACACA_site3415]	10.4 ± 0.42
GATATTAAAATATGTAGTACACATATTATATCATAT [XGTACX_site4167]	11.5 ± 0.94
TTAAAAATTATGGATACACACATATATATATATATT [CACACA_site2383]	10.2 ± 0.2
ATTAGCTACAAACAAAGGCTACCTATAGCAAGAGGG [GTGCAC_negctrl_site33]	10.1 ± 0.25
AATTTAATCCGTAATAAGAAAAGAAAAAAAAAAAGA [GTGCAC_negctrl_site129]	9.84 ± 0.23
TTTATTAAATAATCTCTTTTTATTACATAATAATAA [XGTACX_negctrl_site382]	9.625 ± 0.021
TTTACACTTTCCAATAGTACATATTAGAATAATTCT [XGTACX_site7734]	10.9 ± 0.56
GGATTATTTATAGGAGTGCATACATATATATATATA [GTGCAC_site9454]	10.2 ± 0.4
TAATTTATGGAATATGTGCACTTGCTGATCACTTTT [GTGCAC_site9843]	10.3 ± 0.32
TATATATATACATACATACACACATATATATATATA [CACACA_site4109]	10 ± 0.31
ATAATTTCTTTTACATGTACAAAATTTGCTTATATG [XGTACX_site5388]	10.8 ± 0.44
ATATATATAATGTGAAGTACATTTTGTTTACATATT [XGTACX_site8405]	11.2 ± 0.86

Sequence	gcPBM binding intensity (ln)
AATATCTAAATAAAGTGTACTTACCTTATTAATTAT [XGTACX_site2276]	11.3 ± 0.94
CCAATACATAGAAACTGTACATTATGCATTATACAC [XGTACX_site3531]	10.9 ± 0.46
TATATATATATATAATGTACGAATAGAAAAAAAAAA [XGTACX_site7231]	11 ± 0.59
CAAAATTTATATAATAGTACACATGATCTTTTTTCT [XGTACX_site8956]	11.4 ± 0.73
GATACAAAATGGGGAACACACACATATATATATATA [CACACA_site9278]	10.5 ± 0.44
AAATTAATAAATATTTTTATAAATTATAATATTAAT [GTGCAC_negctrl_site533]	9.37 ± 0.16
TATATATATATATATATATATATTAATATATATTAC [XGTACX_negctrl_site103]	9.98 ± 0.65
TATTTATAAATATAAACACACAACATTATATGCATA [CACACA_site5748]	10.03 ± 0.064
TAAAGGCAAACAAACACACACACATATATACCTATA [CACACA_site7078]	9.985 ± 0.064
ATAACAAAATAAAACACACACACAAATGTACCTATA [CACACA_site7190]	11.1 ± 0.74
AAAAGTGTATGTAGGTGTACTTTTTATTTCTTCTTT [XGTACX_site8819]	11.6 ± 0.98
AAATATTTATACCACACACACATACCTCTATTTGTA [CACACA_site6957]	10.2 ± 0.11
TACATATTTGTATATGCACACATAAATTTTTCCATT [CACACA_site9148]	9.98 ± 0.042
TATATTTATATATTAGTGCACTTTTTGTTAATTTTT	10.3 ± 0.25
TTTTTTTTTTTTTAATGTACCCATGGGCACATAGGT [XGTACX_site486]	11.4 ± 1
TAAATATAGGGTAATAGTACATAATTATATTCTTTT [XGTACX_site3883]	10.7 ± 0.36
AATGGATTAGCTAGCACACACAAAAAAAAAAAAAAA [CACACA_site3031]	10 ± 0.45
TTTACATAAACTGGTAGTACATAATATGGCTTAAAA [XGTACX_site5002]	11.5 ± 0.86
TTAGCAACTATTACTACACACATTTGTATTTAATTT [CACACA_site4961]	9.945 ± 0.021
TGGATTTTTTGATTTTTGTTTTTCTTCTTTCCCCCC [CACACA_negctrl_site1471]	10.6 ± 0.81
TGATTATAGACACGCGCACACACAACAAAAAAAAAA [CACACA_site9179]	10.6 ± 0.48
TAAGTTTGTGCAAGTGGTACATATATATAAATTTAT [XGTACX_site5944]	11.3 ± 0.79

Sequence	gcPBM binding intensity (ln)
ACAGTATAAAAATAAGCACACACACTAATATATATT [CACACA_site8212]	10.1 ± 0.11
TAAAATATATTTTTCTGTACACAAAAATATATTAAA [XGTACX_site2813]	11.5 ± 0.96
TATATATTAATATATGCATGTTAATATATTATGAAA [TGCATGCA_site61]	9.62 ± 0.11
AATGTAAAACGAAATGCACACTATGGAAAATATAAA [CACACA_site4559]	10.21 ± 0.085
TTATATATTTATAAATGTACGTATAAGAATTTAATT [XGTACX_site8541]	11.5 ± 0.81
CTATTAATGTACTCTACACACATATAAGAGGACATT [CACACA_site471]	11.6 ± 0.86
TAATAATAATTAAAATGAGATAAATAAATATATATA [TGCATGCA_negctrl_site322]	9.55
TCTTTATATCATCTTTCTAAATATATATATATATAA [CACACA_negctrl_site77]	9.885 ± 0.021
AAAAATAAAAATGAGTGTACTTTAAGCCCTACACTT [XGTACX_site828]	11.3 ± 0.74
TATAATATTATAGTTTGTACGAAAATAATATATTTA [XGTACX_site8673]	11 ± 0.62
ACGATGTTCATCACTACACACACAAAGAAATATATA [CACACA_site8859]	10.1 ± 0.16
AACCAAAATTTTTGTCGTACAAAAGAGCAAATGTAG [XGTACX_site6472]	11.6 ± 0.81
AATATTTTTTGTTTTACACACATATATAAATATATA [CACACA_site3602]	9.93 ± 0.057
TTATTTATATATTGCCCACACACATGTGATTATTTA [CACACA_site1715]	10.4 ± 0.18
ATAAACATGTATATATTAAAAAAAAAAAAAAAAAAT [CACACA_negctrl_site92]	9.69 ± 0.22
GAATTATATACTTATTGTACAAAAAAAAAAAAAAAA [XGTACX_site3193]	10.7 ± 0.78
TATTCCCCCCAACACACACACACACCGACATACCAC [CACACA_site8723]	11.8 ± 1.1
TGAACAGGTCATAATTTACACACTATATATTTTATT [CACACA_site8123]	10.12 ± 0.092
TACAGGAATATTTTTACACACTAAAAGTTATAAACT [CACACA_site6876]	9.7 ± 0.11
TTTTTCTTTTTTTGTTGTACATTTTGTAATATTTAC [XGTACX_site4102]	11.1 ± 0.7
TTTTTTAAATATATATGTACATATATCTATATATAT [XGTACX_site3461]	11.2 ± 0.71
TTTATAATTTATAGGCGGACAGGAAAATTTTATAAA [XGTACX_site6955]	11.4 ± 0.83

Sequence	gcPBM binding intensity (ln)
GCAAGGTCCACACTGGTGCATTAAAAATAAAATATA [GTGCAC_site9956]	10.5 ± 0.62
TTTTTAATTTTTTTCACACATATATAAATACAAATA [CACACA_site5530]	9.97 ± 0.36
AAATTACAAATAAAATGTACTCATGTTTTTATTATA [XGTACX_site7223]	11.5 ± 0.83
TATAATATATATGTATGTACGTATGTATGATTTTGT [XGTACX_site1164]	11.5 ± 1
AAGAAAAATTCTTCACGTACAAATAATTATATATAT [XGTACX_site7217]	11.2 ± 0.83
TATTACAAAAATGTGTTATTATATAAACGTATAGAG [XGTACX_negctrl_site529]	10.09 ± 0.057
AATATAATATAATGCACACATAAAAAAAAAAAAAAA [CACACA_site304]	9.87 ± 0.45
TTTCTTATATTATATAAATATATAGATGTTAATGGT [CACACA_negctrl_site706]	9.905 ± 0.064
AGTAAATATATTATATGTACGTATCATAAAATATAT [XGTACX_site1567]	11.6 ± 0.86
TTAATATTAAAATATAAACACACAAAATTCAATTAT [CACACA_site9262]	9.92 ± 0.014
ATTATATAATAATAAAGTACTAATATTTTTAAAAGA [XGTACX_site235]	11 ± 0.56
ATATATATATATATAGTGCAAATAAAAAATAGACAA [GTGCAC_site9796]	10.3 ± 0.2
TAATATATTAAAAGAAGTACATTTCTGATTTAATAG [XGTACX_site6403]	11.3 ± 1
GAACCGTTTTTATGTAGTACATATGTATATATATAT [XGTACX_site1577]	11.6 ± 1.1
ATTTTTTTTTTTTTTTTTAATTTATGTTGTTATTTT [CACACA_negctrl_site944]	9.7 ± 0.16
GTAAAATAAATAATATAAATAAAATGAAATGAAACA [TGCATGCA_negctrl_site519]	9.93 ± 0.057
AAGTTTAAAGGAATTACACAAACAAGCAAATATATA [CACACA_negctrl_site857]	10.1 ± 0.18
ATTTTCTTAAATAAATGTACATGGCATTAAAAGTAA [XGTACX_site5119]	11.1 ± 0.58
ATACCATATAATTATGTGAGAAAATATAATATTCAT [CACACA_negctrl_site310]	9.71 ± 0.2
AAAAAAAAAAAAAATACACACAAATAATAAAAATAA [CACACA_site1431]	9.88 ± 0.16
TGTACGTTTTTTAACACACACACAAAAAAAAAAAAA [CACACA_site6006]	10.9 ± 0.68
ATATATATATATGTATGTACATAATATTTTTTTTAT [XGTACX_site5551]	11.2 ± 0.69
